Results are given in words; binding and its absence hold for the method and conditions named. For some assays here: Binding seen in cells or lysates may run through a third protein. Some entries that bind do so weakly or less than the wild type. Sequences can lack the tags named with a protein.
Key:
[1] = target: ARL13B-Flag (human full-length Arl13b with C-terminal Flag tag) (human) (UniProt Q3SXY8); test: co-IP; HEK293T cells transfected with C-terminal Flag vector with or without ARL13B; lysates (50 mM Tris-HCl pH 7.5, 100 mM NaCl, 1% NP-40, 5 mM MgCl2) on anti-Flag M2 beads; Western blot for endogenous IFT88, IFT52, INVS
[2] = target: GAL4-BD fused to full length ARL13B (human) (UniProt Q3SXY8); test: two-hybrid; GAL4-based (Hybrizap), one-on-one; GAL4-BD-ARL13B bait against GAL4-AD preys in yeast PJ69-4A; growth on media lacking His and Ade, alpha- and beta-galactosidase

Protein sequences, listed by entry. Tags and fused reporters are not part of them.
UniProt Q3SXY8: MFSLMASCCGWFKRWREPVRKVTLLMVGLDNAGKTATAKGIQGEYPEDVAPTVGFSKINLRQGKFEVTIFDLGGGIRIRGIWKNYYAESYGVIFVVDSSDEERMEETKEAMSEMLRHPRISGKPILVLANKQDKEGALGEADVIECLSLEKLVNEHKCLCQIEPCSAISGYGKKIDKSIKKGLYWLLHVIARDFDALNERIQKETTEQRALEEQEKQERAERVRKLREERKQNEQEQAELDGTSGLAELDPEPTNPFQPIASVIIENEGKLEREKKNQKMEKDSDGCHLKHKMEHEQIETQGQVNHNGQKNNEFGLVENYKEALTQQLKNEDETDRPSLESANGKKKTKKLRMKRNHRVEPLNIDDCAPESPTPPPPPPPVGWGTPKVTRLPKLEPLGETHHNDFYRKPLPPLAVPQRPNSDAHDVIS

Row | Binder | binding [1] | binding [2]
1 | IFT88 (protein, UniProt Q13099 1-824) MMQNVHLAPETDEDDLYSGYNDYNPIYDIEELENDAAFQQAVRTSHGRRPPITAKISSTAVTRPIATGYGSKTSLASSIGRPMTGAIQDGVTRPMTAVRAAGFTKAALRGSAFDPLSQSRGPASPLEAKKKDSPEEKIKQLEKEVNELVEESCIANSCGDLKLALEKAKDAGRKERVLVRQREQVTTPENINLDLTYSVLFNLASQYSVNEMYAEALNTYQVIVKNKMFSNAGILKMNMGNIYLKQRNYSKAIKFYRMALDQVPSVNKQMRIKIMQNIGVTFIQAGQYSDAINSYEHIMSMAPNLKAGYNLTICYFAIGDREKMKKAFQKLITVPLEIDEDKYISPSDDPHTNLVTEAIKNDHLRQMERERKAMAEKYIMTSAKLIAPVIETSFAAGYDWCVEVVKASQYVELANDLEINKAVTYLRQKDYNQAVEILKVLEKKDSRVKSAAATNLSALYYMGKDFAQASSYADIAVNSDRYNPAALTNKGNTVFANGDYEKAAEFYKEALRNDSSCTEALYNIGLTYEKLNRLDEALDCFLKLHAILRNSAEVLYQIANIYELMENPSQAIEWLMQVVSVIPTDPQVLSKLGELYDREGDKSQAFQYYYESYRYFPCNIEVIEWLGAYYIDTQFWEKAIQYFERASLIQPTQVKWQLMVASCFRRSGNYQKALDTYKDTHRKFPENVECLRFLVRLCTDLGLKDAQEYARKLKRLEKMKEIREQRIKSGRDGSGGSRGKREGSASGDSGQNYSASSKGERLSARLRALPGTNEPYESSSNKEIDASYVDPLGPQIERPKTAAKKRIDEDDFADEELGDDLLPE | binds | 
2 | intraflagellar transport 52 (protein, UniProt Q9Y366 1-437) MEKELRSTILFNAYKKEIFTTNNGYKSMQKKLRSNWKIQSLKDEITSEKLNGVKLWITAGPREKFTAAEFEILKKYLDTGGDVFVMLGEGGESRFDTNINFLLEEYGIMVNNDAVVRNVYHKYFHPKEALVSSGVLNREISRAAGKAVPGIIDEESSGNNAQALTFVYPFGATLSVMKPAVAVLSTGSVCFPLNRPILAFYHSKNQGGKLAVLGSCHMFSDQYLDKEENSKIMDVVFQWLTTGDIHLNQIDAEDPEISDYMMLPYTATLSKRNRECLQESDEIPRDFTTLFDLSIFQLDTTSFHSVIEAHEQLNVKHEPLQLIQPQFETPLPTLQPAVFPPSFRELPPPPLELFDLDETFSSEKARLAQITNKCTEEDLEFYVRKCGDILGVTSKLPKDQQDAKHILEHVFFQVVEFKKLNQEHDIDTSETAFQNNF | binds | 
3 | IFT46 fused to GAL4 activation domain (protein, UniProt Q9NQC8 1-304) MADNSSDECEEENNKEKKKTSQLTPQRGFSENEDDDDDDDDSSETDSDSDDDDEEHGAPLEGAYDPADYEHLPVSAEIKELFQYISRYTPQLIDLDHKLKPFIPDFIPAVGDIDAFLKVPRPDGKPDNLGLLVLDEPSTKQSDPTVLSLWLTENSKQHNITQHMKVKSLEDAEKNPKAIDTWIESISELHRSKPPATVHYTRPMPDIDTLMQEWSPEFEELLGKVSLPTAEIDCSLAEYIDMICAILDIPVYKSRIQSLHLLFSLYSEFKNSQHFKALAEGKKAFTPSSNSTSQAGDMETLTFS |  | binds
4 | IFT74 fused to GAL4 activation domain (protein, UniProt Q96LB3 1-600) MASNHKSSAARPVSRGGVGLTGRPPSGIRPLSGNIRVATAMPPGTARPGSRGCPIGTGGVLSSQIKVAHRPVTQQGLTGMKTGTKGPQRQILDKSYYLGLLRSKISELTTEVNKLQKGIEMYNQENSVYLSYEKRAETLAVEIKELQGQLADYNMLVDKLNTNTEMEEVMNDYNMLKAQNDRETQSLDVIFTERQAKEKQIRSVEEEIEQEKQATDDIIKNMSFENQVKYLEMKTTNEKLLQELDTLQQQLDSQNMKKESLEAEIAHSQVKQEAVLLHEKLYELESHRDQMIAEDKSIGSPMEEREKLLKQIKDDNQEIASMERQLTDTKEKINQFIEEIRQLDMDLEEHQGEMNQKYKELKKREEHMDTFIETFEETKNQELKRKAQIEANIVALLEHCSRNINRIEQISSITNQELKMMQDDLNFKSTEVQKSQSTAQNLTSDIQRLQLDLQKMELLESKMTEEQHSLKSKIKQMTTDLEIYNDLPALKSSGEEKIKKLHQERMILSTHRNAFKKIMEKQNIEYEALKTQLQENETHSQLTNLERKWQHLEQNNFAMKEFIATKSQESDYQPIKKNVTKQIAEYNKTIVDALHSTSGN |  | binds
5 | Inversin (protein, UniProt Q9Y283 1-1065) MNKSENLLFAGSSLASQVHAAAVNGDKGALQRLIVGNSALKDKEDQFGRTPLMYCVLADRLDCADALLKAGADVNKTDHSQRTALHLAAQKGNYRFMKLLLTRRANWMQKDLEEMTPLHLTTRHRSPKCLALLLKFMAPGEVDTQDKNKQTALHWSAYYNNPEHVKLLIKHDSNIGIPDVEGKIPLHWAANHKDPSAVHTVRCILDAAPTESLLNWQDYEGRTPLHFAVADGNVTVVDVLTSYESCNITSYDNLFRTPLHWAALLGHAQIVHLLLERNKSGTIPSDSQGATPLHYAAQSNFAETVKVFLKHPSVKDDSDLEGRTSFMWAAGKGSDDVLRTMLSLKSDIDINMADKYGGTALHAAALSGHVSTVKLLLENNAQVDATDVMKHTPLFRACEMGHKDVIQTLIKGGARVDLVDQDGHSLLHWAALGGNADVCQILIENKINPNVQDYAGRTPLQCAAYGGYINCMAVLMENNADPNIQDKEGRTALHWSCNNGYLDAIKLLLDFAAFPNQMENNEERYTPLDYALLGERHEVIQFMLEHGALSIAAIQDIAAFKIQAVYKGYKVRKAFRDRKNLLMKHEQLRKDAAAKKREEENKRKEAEQQKGRRSPDSCRPQALPCLPSTQDVPSRQSRAPSKQPPAGNVAQGPEPRDSRGSPGGSLGGALQKEQHVSSDLQGTNSRRPNETAREHSKGQSACVHFRPNEGSDGSRHPGVPSVEKSRGETAGDERCAKGKGFVKQPSCIRVAGPDEKGEDSRRAAASLPPHDSHWKPSRRHDTEPKAKCAPQKRRTQELRGGRCSPAGSSRPGSARGEAVHAGQNPPHHRTPRNKVTQAKLTGGLYSHLPQSTEELRSGARRLETSTLSEDFQVSKETDPAPGPLSGQSVNIDLLPVELRLQIIQRERRRKELFRKKNKAAAVIQRAWRSYQLRKHLSHLRHMKQLGAGDVDRWRQESTALLLQVWRKELELKFPQTTAVSKAPKSPSKGTSGTKSTKHSVLKQIYGCSHEGKIHHPTRSVKASSVLRLNSVSNLQCIHLLENSGRSKNFSYNLQSATQPKNKTKP | no binding | 

Reference: PMC3854969
